Reference: the supplement of paper PMC8728848
The other results are listed elsewhere or left out.

Tests used:
Assay in all cases: glycan array binding signal (z-score within array); higher = stronger binding
Conditions in all cases: glycan notation: IUPAC condensed, linker removed
[1] = molecular target: Fuc(a1-3)[Gal3S(b1-4)]GlcNAc6S
Procedure, shortened: (§1)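 Columns mapping to the same glycan were averaged after glycan names were converted to IUPAC-condensed notation. The data come from 3228 arrays in the Consortium for Functional Glycomics database, limited to those with an available protein sequence. Binding is reported as a within-array Z-score averaged across arrays of one protein sequence and across linkers.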

[2] = molecular target: Fuc(a1-3)[GalNAc(b1-4)]GlcNAc
Procedure, shortened: as §1

[3] = molecular target: Fuc(a1-3)[GalNAc(b1-4)]GlcNAc6S
Procedure, shortened: as §1

Fuc(a1-4)GlcNAc = molecular target: Fuc(a1-4)GlcNAc
Procedure, shortened: as §1

Fuc(b1-3)GlcNAc = molecular target: Fuc(b1-3)GlcNAc
Procedure, shortened: as §1

Gal(a1-2)Gal = molecular target: Gal(a1-2)Gal
Procedure, shortened: as §1

Gal(a1-3)Gal = molecular target: Gal(a1-3)Gal
Procedure, shortened: as §1

Gal(a1-3)Gal(b1-3)GlcNAc = molecular target: Gal(a1-3)Gal(b1-3)GlcNAc
Procedure, shortened: as §1

[4] = molecular target: Gal(a1-3)Gal(b1-3)GlcNAc(b1-2)Man
Procedure, shortened: as §1

[5] = molecular target: Gal(a1-3)Gal(b1-3)GlcNAc(b1-2)Man(a1-3)[Gal(a1-3)Gal(b1-3)GlcNAc(b1-2)Man(a1-6)]Man(b1-4)GlcNAc(b1-4)GlcNAc
Procedure, shortened: as §1

[6] = molecular target: Gal(a1-3)Gal(b1-3)GlcNAc(b1-3)GalNAc
Procedure, shortened: as §1

[7] = molecular target: Gal(a1-3)Gal(b1-3)GlcNAc(b1-6)GalNAc
Procedure, shortened: as §1

[8] = molecular target: Gal(a1-3)Gal(b1-3)[Fuc(a1-4)]GlcNAc(b1-2)Man(a1-3)[Gal(a1-3)Gal(b1-3)[Fuc(a1-4)]GlcNAc(b1-2)Man(a1-6)]Man(b1-4)GlcNAc(b1-4)GlcNAc
Procedure, shortened: as §1

Gal(a1-3)Gal(b1-4)Glc = molecular target: Gal(a1-3)Gal(b1-4)Glc
Procedure, shortened: as §1

Gal(a1-3)Gal(b1-4)GlcNAc = molecular target: Gal(a1-3)Gal(b1-4)GlcNAc
Procedure, shortened: as §1

[9] = molecular target: Gal(a1-3)Gal(b1-4)GlcNAc(b1-2)Man
Procedure, shortened: as §1

[10] = molecular target: Gal(a1-3)Gal(b1-4)GlcNAc(b1-2)Man(a1-3)[Gal(a1-3)Gal(b1-4)GlcNAc(b1-2)Man(a1-6)]Man(b1-4)GlcNAc(b1-4)GlcNAc
Procedure, shortened: as §1

[11] = molecular target: Gal(a1-3)Gal(b1-4)GlcNAc(b1-3)GalNAc
Procedure, shortened: as §1

[12] = molecular target: Gal(a1-3)Gal(b1-4)GlcNAc(b1-6)GalNAc
Procedure, shortened: as §1

[13] = molecular target: Gal(a1-3)Gal(b1-4)[Fuc(a1-3)]GlcNAc
Procedure, shortened: as §1

[14] = molecular target: Gal(a1-3)Gal(b1-4)[Fuc(a1-3)]GlcNAc(b1-2)Man(a1-3)[Gal(a1-3)Gal(b1-4)[Fuc(a1-3)]GlcNAc(b1-2)Man(a1-6)]Man(b1-4)GlcNAc(b1-4)GlcNAc
Procedure, shortened: as §1

Gal(a1-3)GalNAc = molecular target: Gal(a1-3)GalNAc
Procedure, shortened: as §1

[15] = molecular target: Gal(a1-3)[Gal(a1-4)]Gal(b1-4)GlcNAc
Procedure, shortened: as §1

[16] = molecular target: Gal(a1-4)Gal(b1-3)GlcNAc(b1-2)Man(a1-3)[Gal(a1-4)Gal(b1-3)GlcNAc(b1-2)Man(a1-6)]Man(b1-4)GlcNAc(b1-4)GlcNAc
Procedure, shortened: as §1

Gal(a1-4)Gal(b1-4)Glc = molecular target: Gal(a1-4)Gal(b1-4)Glc
Procedure, shortened: as §1

Gal(a1-4)Gal(b1-4)GlcNAc = molecular target: Gal(a1-4)Gal(b1-4)GlcNAc
Procedure, shortened: as §1

[17] = molecular target: Gal(a1-4)Gal(b1-4)GlcNAc(b1-2)Man(a1-3)[Gal(a1-4)Gal(b1-4)GlcNAc(b1-2)Man(a1-6)]Man(b1-4)GlcNAc(b1-4)GlcNAc
Procedure, shortened: as §1

[18] = molecular target: Gal(a1-4)Gal(b1-4)GlcNAc(b1-3)Gal(b1-4)Glc
Procedure, shortened: as §1

Gal(a1-4)GlcNAc = molecular target: Gal(a1-4)GlcNAc
Procedure, shortened: as §1

Gal(a1-6)Glc = molecular target: Gal(a1-6)Glc
Procedure, shortened: as §1

Gal(b1-2)Gal = molecular target: Gal(b1-2)Gal
Procedure, shortened: as §1

Gal(b1-3)Gal = molecular target: Gal(b1-3)Gal
Procedure, shortened: as §1

Gal(b1-3)Gal(b1-4)GlcNAc = molecular target: Gal(b1-3)Gal(b1-4)GlcNAc
Procedure, shortened: as §1

Gal(b1-3)GalNAc = molecular target: Gal(b1-3)GalNAc
Procedure, shortened: as §1

[19] = molecular target: Gal(b1-3)GalNAc(a1-3)[Fuc(a1-2)]Gal(b1-4)Glc
Procedure, shortened: as §1

[20] = molecular target: Gal(b1-3)GalNAc(a1-3)[Fuc(a1-2)]Gal(b1-4)GlcNAc
Procedure, shortened: as §1

Gal(b1-3)GalNAc(b1-3)Gal = molecular target: Gal(b1-3)GalNAc(b1-3)Gal
Procedure, shortened: as §1

[21] = molecular target: Gal(b1-3)GalNAc(b1-3)Gal(a1-4)Gal(b1-4)Glc
Procedure, shortened: as §1

[22] = molecular target: Gal(b1-3)GalNAc(b1-4)Gal(b1-4)Glc
Procedure, shortened: as §1

[23] = molecular target: Gal(b1-3)GalNAc(b1-4)[Neu5Ac(a2-3)]Gal(b1-4)Glc
Procedure, shortened: as §1

Gal(b1-3)GlcNAc = molecular target: Gal(b1-3)GlcNAc
Procedure, shortened: as §1

[24] = molecular target: Gal(b1-3)GlcNAc(a1-3)Gal(b1-4)GlcNAc
Procedure, shortened: as §1

[25] = molecular target: Gal(b1-3)GlcNAc(a1-6)Gal(b1-4)GlcNAc
Procedure, shortened: as §1

Gal(b1-3)GlcNAc(b1-2)Man = molecular target: Gal(b1-3)GlcNAc(b1-2)Man
Procedure, shortened: as §1

[26] = molecular target: Gal(b1-3)GlcNAc(b1-2)Man(a1-3)[Gal(b1-3)GlcNAc(b1-2)Man(a1-6)]Man(b1-4)GlcNAc(b1-4)GlcNAc
Procedure, shortened: as §1

B1: AidA (Burkholderia cenocepacia) (protein)
chain: MSRVTDVLVSFDTETILKKYPNPSKNPAAPTLIDWRYVYMVTNQDNVISGQAGGELDLKAQVGDLIRWRETSLSLGFENQVVFYKFIGNVGNDLISTPTPRVAEASIPVPNTSKPEVPTCQKVANYYWSSECLKVGRVTYHFQFQIIDRNCQSQGCFSWDPFISIHN
For B1, the “glycan array binding signal (z-score)” value [1] was -0.078, the “glycan array binding signal (z-score)” value [2] was -0.281 and the “glycan array binding signal (z-score)” value [3] was 0.074. For the same binder, the “glycan array binding signal (z-score)” value (Fuc(a1-4)GlcNAc) was 3.1, the “glycan array binding signal (z-score)” value (Fuc(b1-3)GlcNAc) was -0.007 and the “glycan array binding signal (z-score)” value (Gal(a1-2)Gal) was 0.943. For the same binder, the “glycan array binding signal (z-score)” value (Gal(a1-3)Gal) was 1.06, the “glycan array binding signal (z-score)” value (Gal(a1-3)Gal(b1-3)GlcNAc) was 0.178 and the “glycan array binding signal (z-score)” value [4] was -0.304. For the same binder, the “glycan array binding signal (z-score)” value [5] was 0.231, the “glycan array binding signal (z-score)” value [6] was -0.32 and the “glycan array binding signal (z-score)” value [7] was -0.754. The “glycan array binding signal (z-score)” value [8] was 0.408, the “glycan array binding signal (z-score)” value (Gal(a1-3)Gal(b1-4)Glc) was -0.484 and the “glycan array binding signal (z-score)” value (Gal(a1-3)Gal(b1-4)GlcNAc) was -0.134. The “glycan array binding signal (z-score)” value [9] was 0, the “glycan array binding signal (z-score)” value [10] was -0.2 and the “glycan array binding signal (z-score)” value [11] was 0.153. For the same binder, the “glycan array binding signal (z-score)” value [12] was 0.471, the “glycan array binding signal (z-score)” value [13] was -0.421 and the “glycan array binding signal (z-score)” value [14] was 0.688. The “glycan array binding signal (z-score)” value (Gal(a1-3)GalNAc) was -0.365, the “glycan array binding signal (z-score)” value [15] was 0.54 and the “glycan array binding signal (z-score)” value [16] was 0.346. For the same binder, the “glycan array binding signal (z-score)” value (Gal(a1-4)Gal(b1-4)Glc) was -0.129, the “glycan array binding signal (z-score)” value (Gal(a1-4)Gal(b1-4)GlcNAc) was 0.566 and the “glycan array binding signal (z-score)” value [17] was 0.711. For the same binder, the “glycan array binding signal (z-score)” value [18] was -0.277, the “glycan array binding signal (z-score)” value (Gal(a1-4)GlcNAc) was 0.459 and the “glycan array binding signal (z-score)” value (Gal(a1-6)Glc) was 0.024. The “glycan array binding signal (z-score)” value (Gal(b1-2)Gal) was -0.457, the “glycan array binding signal (z-score)” value (Gal(b1-3)Gal) was 0.911 and the “glycan array binding signal (z-score)” value (Gal(b1-3)Gal(b1-4)GlcNAc) was -0.175. The “glycan array binding signal (z-score)” value (Gal(b1-3)GalNAc) was 0.314, the “glycan array binding signal (z-score)” value [19] was -0.092 and the “glycan array binding signal (z-score)” value [20] was -0.722. For the same binder, the “glycan array binding signal (z-score)” value (Gal(b1-3)GalNAc(b1-3)Gal) was 0.156, the “glycan array binding signal (z-score)” value [21] was 0.445 and the “glycan array binding signal (z-score)” value [22] was 0.223. The “glycan array binding signal (z-score)” value [23] was 0.172, the “glycan array binding signal (z-score)” value (Gal(b1-3)GlcNAc) was -0.602 and the “glycan array binding signal (z-score)” value [24] was 0.237. For the same binder, the “glycan array binding signal (z-score)” value [25] was -0.446, the “glycan array binding signal (z-score)” value (Gal(b1-3)GlcNAc(b1-2)Man) was -0.363 and the “glycan array binding signal (z-score)” value [26] was -0.142.
